Over roughly 110,000 compounds, “z-score” has its median near -0.1; the highest 2% begin near 2. Some of the results follow. The source made the active and inactive calls.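 How the source made its calls: active means z-score in the third read window above 3 or below -3; inactive means the rest.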

This assay addresses Metabotropic glutamate receptor 8 (Rattus norvegicus) (UniProt P70579). Briefly: rat mGluR8 modulators via GIRK flux, primary screen, cell-based, thallium flux, HTS (AID 488969). The conditions noted are these: HEK293 rat mGluR8, GIRK (G protein-gated inwardly rectifying potassium channel) thallium flux, FluoZin2; at 10 µM; stronger effect = higher value; submaximal glutamate (EC20) added with thallium.
Sequence of UniProt P70579 (P70579 whole entry, looked up): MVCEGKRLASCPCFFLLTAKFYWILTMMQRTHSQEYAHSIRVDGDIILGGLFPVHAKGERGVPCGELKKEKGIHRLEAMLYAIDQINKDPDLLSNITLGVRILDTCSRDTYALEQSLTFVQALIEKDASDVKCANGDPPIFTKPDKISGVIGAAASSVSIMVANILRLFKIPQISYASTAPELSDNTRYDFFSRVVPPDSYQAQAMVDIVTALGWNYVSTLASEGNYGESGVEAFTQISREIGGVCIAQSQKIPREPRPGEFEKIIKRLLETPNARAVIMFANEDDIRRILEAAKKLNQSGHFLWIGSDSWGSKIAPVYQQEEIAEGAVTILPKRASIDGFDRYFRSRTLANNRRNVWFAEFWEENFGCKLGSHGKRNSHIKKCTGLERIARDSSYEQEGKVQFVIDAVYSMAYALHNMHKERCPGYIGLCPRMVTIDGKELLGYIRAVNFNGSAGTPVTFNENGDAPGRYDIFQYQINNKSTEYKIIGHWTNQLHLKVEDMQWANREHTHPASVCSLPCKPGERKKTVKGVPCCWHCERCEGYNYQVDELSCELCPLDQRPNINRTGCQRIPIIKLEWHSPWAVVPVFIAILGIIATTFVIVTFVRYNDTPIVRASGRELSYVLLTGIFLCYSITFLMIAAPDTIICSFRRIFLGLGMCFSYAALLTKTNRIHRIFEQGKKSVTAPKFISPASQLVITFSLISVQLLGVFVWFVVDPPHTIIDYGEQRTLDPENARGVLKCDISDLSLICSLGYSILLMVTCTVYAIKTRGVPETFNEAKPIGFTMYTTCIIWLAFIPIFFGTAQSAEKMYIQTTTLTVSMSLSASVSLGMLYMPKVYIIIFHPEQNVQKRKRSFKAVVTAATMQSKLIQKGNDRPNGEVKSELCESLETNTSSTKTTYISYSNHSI
`N#Cc1c(NC(=O)c2ccccc2)sc2c1CCC2`: the z-score came out at 0.423.
The compound `Cc1cccc(Cn2nnc3c2C(=O)c2ccccc2C3=O)c1` yielded a z-score of -0.21.
To `COC(=O)c1nc(N)sc1-c1ccc(OC)cc1` belongs -0.163.
With `CCCNC(=O)Cn1nc(C(F)(F)F)c2c1CCCC2` the figure was 0.279; with `COc1ccc(CCNC(=O)Cn2cnc3c(cnn3-c3ccccc3Cl)c2=O)cc1OC`, -0.325; with `CC(=O)c1cc2c(=O)c3cc(C)ccc3oc2nc1C`, 0.794.
The compound `Clc1ccc(OCCn2c(-c3ccco3)nc3ccccc32)cc1` registered a z-score of -0.643.
In turn, `Cc1c(C(=O)NC2CCCc3ccccc32)oc2ccc(S(=O)(=O)N3CCCC3)cc12` (configuration not stated) registered a z-score of 0.0835.
To `COC(=O)c1c(NC(=O)CN2C(=O)NC3(CCC(C(C)(C)C)CC3)C2=O)sc2c1CCCCC2` (configuration not stated) belongs -0.472; to `Cc1cc(NS(=O)(=O)c2ccc(NC(=O)C(c3ccccc3)c3ccccc3)cc2)no1`, -0.79; to `O=C(C(=O)N1CCCc2ccccc21)c1c[nH]c2ccccc12`, 0.104.
With `COC(=O)C1=C(O)CSC1=Nc1ccccc1`, the z-score worked out at 0.0252.
`Clc1ccc(CSc2nnc(/C=C/c3ccccc3)o2)cc1` came in with a z-score of -0.0393.
`Cc1nnc(SCC(=O)Nc2cc(C(F)(F)F)ccc2N2CCOCC2)o1` had a z-score of -0.221.
Consider `C/C(CC(=O)Nc1ccc(OCc2ccccc2)cc1)=N\NC(=O)C(=O)Nc1cccc(C)c1`, for which the z-score was 0.474.
The compound `COc1ccc(-n2c(Cc3ccccc3)nnc2SCc2ccc([N+](=O)[O-])cc2)cc1` came in with a z-score of 0.392.
The compound `COc1ccc(C(=O)c2cnc(C(C)C)n2C)cc1` came in with a z-score of -0.0255.
To `Cc1ccc(S(=O)(=O)N(C)c2ccc(C(=O)N3CCN(Cc4ccc5c(c4)OCO5)CC3)cc2)cc1` belongs -0.38; to `COc1ccc(C(=O)c2coc3ccc(O)c(CN4CCCC4)c23)cc1`, -0.315; to `COC(=O)c1nn(-c2ccc(OC)cc2)c(=O)cc1Oc1ccccc1`, -0.0614.
To `Cc1c(/C=N/NC(=O)c2cc(=O)[nH]c(=O)[nH]2)c2ccccn2c1C(=O)c1ccccc1` belongs -0.247; to `Cc1ccc2c(c1)sc1nc(=O)n(-c3cccc(Cl)c3)c(=O)n12`, -0.033.
To `CCOC(=O)/C=C1\NC(=O)C(C)S1` (configuration not stated) belongs 0.527; to `C=CCNC(=O)CCCOc1cccc(C)c1`, 0.388.
Compound `CCN(CC)S(=O)(=O)c1cccc(C(=O)OCC(=O)C23CC4CC(CC(C4)C2)C3)c1` displayed a z-score of -0.152.
To `COc1ccc(-c2nnc3sc(C4CCCCC4)nn23)cc1OC` belongs -2.24; to `Cc1onc(-c2ccccc2)c1C(=O)N1CCC(C)CC1`, -0.358; to `CCOC(=O)c1c(C)nc2c(c1-c1ccccc1)C(=O)CC(C)(C)C2`, -0.148.
To `CN1CCN(C(=S)Nc2cccc(Cl)c2)CC1` belongs -0.182; to `CC(C)c1ccc(Nc2nnc(SC3CCOC3=O)s2)cc1` (configuration not stated), -0.374.
The compound `N#Cc1cnc2sc3ccccc3n2c1=N` returned a z-score of -0.456.
In the case of `CC(C)(C)c1ccc(S(=O)(=O)NCc2ccc(C(=O)N3CCCC3)cc2)cc1`, the z-score was -0.745.
For `Cc1c(/C=N/NC(=O)C2(O)c3ccccc3-c3ccccc32)cnn1C`, the z-score is -0.299.
To `O=C(Nc1ccc(S(=O)(=O)N2CCCC2)cc1)N1c2ccccc2Sc2ccccc21` belongs 0.0176.
With `O=C(O)CCNS(=O)(=O)c1ccc2ccccc2c1` the figure was -0.194; with `CCOC(=O)CNC(=O)CSc1nnc(COc2ccc(Cl)cc2)n1CC`, 1.3.
With `Cc1onc(-c2c(Cl)cccc2Cl)c1C(=O)NCC1CCCO1` (configuration not stated), the z-score is -0.141.
To `COc1ccc(C(=O)N2CCC(C(=O)Nc3ccccc3OC)CC2)cc1` belongs -0.453; to `COC(=O)C1=C(C(=O)OC)SC2(S1)C(C(=O)OC)=C(C(=O)OC)SC1=C2c2cc(C)ccc2NC1(C)C`, -0.0965.
With `Cc1ccc(S(=O)(=O)Cc2ccc(C(=O)NCc3cccs3)o2)cc1`, the z-score was -0.101.
With `N#Cc1c(N)n(CCc2ccc(F)cc2)c2nc3ccccc3nc12` the figure was -0.183.
With `COc1cc(C=O)ccc1Oc1nnnn1-c1ccc(C(N)=O)cc1` the figure was -0.291.
For `COc1ccc(-c2nc(N)n(C(C)=O)n2)cc1`, the z-score worked out at 0.0652.
To `COc1ccc(C2=NN(c3nc(-c4ccccc4)c(CC(=O)O)s3)C(c3ccco3)C2)cc1` (configuration not stated) belongs -0.389.
With `Cc1ccc(CNC(=O)CCCn2c(=O)c3ccccc3n(CC(=O)NCc3ccco3)c2=O)cc1` the figure was -0.356; with `Clc1ccc(Cc2noc(Cc3ccccc3)n2)cc1Cl`, -0.0172; with `CSc1ccccc1C(=O)NCCc1ccc(S(=O)(=O)N2CCCCC2)cc1`, -0.295.
In turn, `O=C(NCc1nnc(SCC(=O)N2CCCc3ccccc32)n1-c1ccccc1)c1cccc2ccccc12` returned a z-score of -0.913.
`Cc1ccc(-c2nnn(CC(=O)N(c3ccccc3F)C(CC(C)C)C(=O)NCC3CCCO3)n2)cc1` (configuration not stated) yielded a z-score of -0.197.
With `COc1ccc(N(C2CSC2)S(=O)(=O)c2ccccc2)cc1` the figure was -0.377; with `O=C(CSc1ccc2nnc(-c3ccncc3)n2n1)Nc1ccc2c(c1)OCO2`, -0.35; with `COc1ccccc1NC(=O)Cc1c(F)cccc1Cl`, -0.193.
With `COc1ccc(C(=O)C(CCCCC(CN(C)C)C(=O)c2ccc(OC)cc2)CN(C)C)cc1` (configuration not stated) the figure was -0.494.
As for `CCOC(=O)NC1(Nc2cccc(Cl)c2)Oc2ccccc2O1`, the z-score is -0.0561.
With `O=C(CCCCl)NC1=NN(c2ccccc2)C(=O)C1` the figure was -2.01; with `CCC1Oc2ccc(C)cc2N(CC(=O)N(Cc2cccnc2)Cc2ccc(C)o2)C1=O` (configuration not stated), -0.536; with `CC1CC1C(=O)Nc1nc(-c2cccs2)c(-c2cccs2)s1` (configuration not stated), -0.316.
`CCCCNC(=O)CS(=O)Cc1nc(-c2ccc(C)cc2)oc1C` (configuration not stated) came in with a z-score of -0.0553.
With `CN(C)S(=O)(=O)c1ccc(NC(=O)c2ccccn2)cc1` the figure was -0.247; with `O=C(CCN1CCOCC1)c1ccccc1`, -0.0719.
To `CCOC(=O)c1cccc(NC(=O)/C=C/c2ccc([N+](=O)[O-])cc2)c1` belongs -0.23; to `OCCN(Cc1ccccc1)Cc1ccc(C(F)(F)F)cc1`, -0.0102; to `CC(C)c1nc(SCC(=O)Nc2nc3c(s2)CCCC3)c2ccccc2n1`, -0.486.
For `CCCOc1ccc(NC(=O)C2CC(=O)N3CCCN=C3S2)cc1` (configuration not stated), the z-score was found to be 0.626.
For the compound `Cc1c(NC(=O)CSc2nc3ccccc3n2C)c(=O)n(-c2ccccc2)n1C`, the z-score was 0.0394.
As for `O=C(Cn1ccc([N+](=O)[O-])n1)N1CCCc2ccccc21`, the z-score is -0.0417.
For the compound `CCOc1cc(C(=O)N/N=C/C(Br)=C/c2ccccc2)cc(OCC)c1OCC`, the z-score came to 0.209.
`O=C(CSc1nc2cc3c(cc2c(=O)n1CCC1=CCCCC1)OCO3)NCc1ccco1` came in with a z-score of 0.355.
The compound `CN1CCN(C(=O)C2CCC(CNS(=O)(=O)c3cccc4cccnc34)CC2)CC1` (configuration not stated) showed a z-score of -0.297.
Turning to `COC(=O)c1ccc(NC(=O)C(=O)N2CCN(C(=S)Nc3ccccc3OC)CC2)cc1`, the z-score was -0.0921.
To `CCNC(=O)N1C(CC(=O)OCC)C(=O)NC2CCCCC21` (configuration not stated) belongs 0.146.
In turn, `O=C(c1cccc([N+](=O)[O-])c1)N1CCN(c2ccc(Cl)cc2)CC1` returned a z-score of -0.216.
With `CC(=O)Nc1ccc(NC(=O)C(F)(F)F)cc1` the figure was 0.364.
With `O=C(O)C1CCN(c2c([N+](=O)[O-])cc(C(F)(F)F)cc2[N+](=O)[O-])CC1` the figure was -0.189; with `CC(Oc1ccc2ccccc2c1)C(=O)NNC(=S)NC(=O)c1ccco1` (configuration not stated), active: 4.46; with `CCc1sc(N2C(=O)C3C4CCC(C4=C(C)C)C3C2=O)nc1-c1ccccc1` (configuration not stated), -0.175.
With `Cc1sc2nc(-c3ccco3)oc(=O)c2c1C` the figure was 0.104; with `CCc1ccc(NC(=S)NNC(=O)c2ccccc2OC(F)F)cc1`, active: 3.63.
Compound `COC(=O)c1ccccc1NC(=O)C12CC3CC(C1)CC(n1cnc(Cl)n1)(C3)C2` showed a z-score of -0.579.
Take `CC(C)c1nnc(NC(=O)c2ccc(N3C(=O)CCC3=O)cc2)s1`: the z-score is -0.263.
Regarding `O=C1CCC([N+](=O)[O-])C(c2cccc(Cl)c2Cl)N1` (configuration not stated), the z-score was -0.113.
In turn, `O=C(COn1nnc2ccc(C(F)(F)F)cc21)Nc1nnc(-c2ccccc2)o1` gave a z-score of 0.188.
To `COc1ccc(-c2nnc(SCc3nnc(-c4ccc(Cl)cc4)o3)n2-c2ccccc2)cc1` belongs -1.79; to `Cc1ccc(/C=N/n2c(C3CCCCC3)n[nH]c2=S)o1`, 0.327; to `COc1ccc(C2CC(=O)C3=C(C2)Nc2ncnn2C3c2ccccc2)cc1` (configuration not stated), 0.0353.
`O=C(CSc1ccc(-c2ccccc2)nn1)N1CCCc2ccccc21` registered a z-score of -0.317.
`Cc1ccc(/C=N/NC(=O)c2nn(C)cc2Cl)cc1` registered a z-score of -1.63.
To `COC(=O)c1ccc(/C=N/OCC(=O)NC2CCCC(C)C2C)cc1` (configuration not stated) belongs -0.102; to `CS(=O)(=O)N(CC(=O)N1CCN(c2ccc(F)cc2)CC1)c1cccc(Cl)c1`, -0.0748; to `CCN(CC)CCn1c(OC)cc(=O)[nH]c1=O`, 0.169.
Take `CNc1nc(C)cc(C)c1S(=O)(=O)c1ccc(Cl)cc1`: the z-score is -0.176.
The compound `Clc1cccc2sc(-c3nnc(-c4ccccc4)o3)c(Cl)c12` had a z-score of -0.173.
To `Cc1noc(C)c1S(=O)(=O)Nc1ccc(C(=O)N2CCN(c3cccc(Cl)c3)CC2)cc1` belongs -0.105; to `O=c1c([N+](=O)[O-])c(N2CCCCC2)c2ccccc2n1-c1ccccc1`, -0.0405; to `CCOC(=O)c1cc(CC)sc1NC(=O)CSc1nc2ccccc2c(=O)n1Cc1ccco1`, 0.657.
As to `CC(C)COP(=O)(c1ccc(N(C)C)cc1)C(O)c1ccccn1` (configuration not stated), the z-score was 0.147.
To `CCNc1nc(N2CCCCC2)nc(-n2nnc(C(=O)OCC)c2C)n1` belongs -1.93.
Regarding `c1ccc(Cc2ccc(OCCn3cncn3)cc2)cc1`, the z-score worked out at 0.501.
To `CC(=O)Nc1cc(NC(C)=O)c2nc(N)sc2c1` belongs 0.158; to `C=CCn1c(N)cc(=O)nc1SCC(=O)N1CCN(c2ccc(F)cc2)CC1`, 1.01.
To `Cc1csc(NC(=O)C2CCCN(S(=O)(=O)c3ccc4c(c3)oc(=O)n4C)C2)n1` (configuration not stated) belongs -0.00309; to `O=C(OCCN1C(=O)c2cccc3c(N4CCOCC4)ccc(c23)C1=O)c1cc(Cl)cc(Cl)c1`, active: 5.23.
For the compound `CCOc1ccc(Br)cc1S(=O)(=O)N1CC(C)OC(C)C1` (configuration not stated), the z-score was -0.977.
For the compound `CCOC(=O)N1CCN(C(=O)c2n[nH]c(=O)c3ccccc23)CC1`, the z-score is 0.307.
`CCOC(=O)/C=c1\s/c(=C\c2ccc3cc(OC)ccc3c2)c(=O)n1CC(=O)NCC1CCCO1` (configuration not stated) came in with a z-score of 0.466.
As to `Cc1ccc(S(=O)(=O)N(CCC#N)CCN2CCCC2)cc1`, the z-score was -0.604.
With `COCC(=O)Nc1sc2c(c1C(=O)OC)CCCC2` the figure was 1.59.

For the origin of these results see PubChem BioAssay AID488969 (Vanderbilt High Throughput Screening Facility, 2010).
